Test results reported in patent publication US20120052007A1, “PERIPHERAL BLOOD SPARC BINDING ANTIBODIES AND USES THEREOF” (ABRAXIS BIOSCIENCE, LLC, priority 2010, published 2012).

Tests used:
[1] = target: T1, recombinant human SPARC (Bio1-SPARC) (Homo sapiens, UniProt P09486); experiment: ELISA binding to recombinant human SPARC (Bio1-SPARC); conditions: protein ELISA (FIG. 10)
T1 sequence (P09486 18-303): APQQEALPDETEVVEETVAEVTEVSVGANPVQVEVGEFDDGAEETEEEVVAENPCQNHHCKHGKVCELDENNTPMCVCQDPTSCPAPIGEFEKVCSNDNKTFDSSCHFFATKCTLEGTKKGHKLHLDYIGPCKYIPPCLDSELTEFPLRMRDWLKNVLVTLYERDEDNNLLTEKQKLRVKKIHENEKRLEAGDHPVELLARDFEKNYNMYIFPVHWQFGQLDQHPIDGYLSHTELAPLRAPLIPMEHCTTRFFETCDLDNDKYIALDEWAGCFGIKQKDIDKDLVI
Description: (§1) The ability of Imm1 through Imm12 (the mouse-derived anti-human SPARC antibodies) to bind recombinant human SPARC (Bio 1-SPARC) was characterized by multiple ELISA assays performed at various stages of purification. FIG. 7 presents the results of an ELISA assay performed on a serial dilution (1:1, 1:10, and 1:100) of antibody supernatants prior to purification. […] Another ELISA assay was performed with the purified antibodies (FIG. 8) at concentrations of 0.04 μg/mL, 0.2 μg/mL, 1 μg/mL, and 5 μg/mL. […] An additional ELISA was performed to compare the binding of the mouse derived Immseries antibodies to two different varieties of SPARC: Bio1-SPARC, and human platelet SPARC (HTI-SPARC) (FIG. 9).
(§2) ELISA assays were also used to characterize the SPARC binding of the fully human SPARC binding antibodies, Imm13 and Imm14. […] Surface plasmon resonance binding assays, performed on the Biacore 3000® (GE/Biacore International AB, Uppsala, Sweden), tested the binding of Fab 16 to both varieties of SPARC immobilized on a sensorchip (FIGS. 11 and 12).

[2] = target: T2, human platelet SPARC (HTI-SPARC) (Homo sapiens, UniProt P09486); experiment: ELISA binding to human platelet SPARC (HTI-SPARC); conditions: protein ELISA (FIG. 10)
T2 construct: human platelet SPARC (HTI-SPARC); tissue Hematologic Technologies; host or cells: human platelets
T2 sequence (P09486 18-303): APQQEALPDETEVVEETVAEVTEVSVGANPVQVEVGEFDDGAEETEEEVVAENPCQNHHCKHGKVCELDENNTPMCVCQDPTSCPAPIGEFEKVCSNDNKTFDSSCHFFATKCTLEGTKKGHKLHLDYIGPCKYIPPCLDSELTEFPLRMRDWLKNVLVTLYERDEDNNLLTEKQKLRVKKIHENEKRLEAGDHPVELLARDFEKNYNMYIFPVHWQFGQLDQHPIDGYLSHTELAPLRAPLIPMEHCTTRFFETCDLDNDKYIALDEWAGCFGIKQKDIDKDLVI
Description: as §1, §2

[3] = target: T3, HTI SPARC (Homo sapiens, UniProt P09486); experiment: Surface plasmon resonance (Biacore 3000), immobilized HTI SPARC; format: binding; conditions: HTI SPARC on sensorchip
T3 construct: human platelet SPARC (HTI-SPARC); tissue Hematologic Technologies; host or cells: human platelets
T3 sequence (P09486 18-303): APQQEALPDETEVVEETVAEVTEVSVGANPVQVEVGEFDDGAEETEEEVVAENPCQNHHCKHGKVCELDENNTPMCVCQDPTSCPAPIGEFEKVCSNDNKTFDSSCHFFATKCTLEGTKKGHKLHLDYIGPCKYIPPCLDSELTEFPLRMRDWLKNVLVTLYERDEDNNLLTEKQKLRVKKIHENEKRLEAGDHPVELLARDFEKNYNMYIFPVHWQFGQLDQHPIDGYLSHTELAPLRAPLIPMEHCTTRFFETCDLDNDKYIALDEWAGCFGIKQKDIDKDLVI
Text: as §2

[4] = target: T4, Bio1-SPARC (Homo sapiens, UniProt P09486); experiment: Surface plasmon resonance (Biacore 3000), immobilized Bio1-SPARC; format: binding; conditions: Bio1-SPARC on sensorchip
T4 sequence (P09486 18-303): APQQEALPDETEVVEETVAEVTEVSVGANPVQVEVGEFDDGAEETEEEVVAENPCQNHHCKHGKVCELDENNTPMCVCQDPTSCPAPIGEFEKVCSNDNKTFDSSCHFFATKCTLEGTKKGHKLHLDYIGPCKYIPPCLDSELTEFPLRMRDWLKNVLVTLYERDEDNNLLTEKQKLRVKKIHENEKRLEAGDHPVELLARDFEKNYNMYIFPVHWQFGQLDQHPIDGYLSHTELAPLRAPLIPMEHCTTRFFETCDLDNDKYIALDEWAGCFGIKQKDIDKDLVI
Text: as §2

[5] = target: T5, SPARC (Homo sapiens, UniProt P09486); experiment: ELISA verification of SPARC binding activity of Fab regions; conditions: purified Fab
T5 sequence (P09486 18-303): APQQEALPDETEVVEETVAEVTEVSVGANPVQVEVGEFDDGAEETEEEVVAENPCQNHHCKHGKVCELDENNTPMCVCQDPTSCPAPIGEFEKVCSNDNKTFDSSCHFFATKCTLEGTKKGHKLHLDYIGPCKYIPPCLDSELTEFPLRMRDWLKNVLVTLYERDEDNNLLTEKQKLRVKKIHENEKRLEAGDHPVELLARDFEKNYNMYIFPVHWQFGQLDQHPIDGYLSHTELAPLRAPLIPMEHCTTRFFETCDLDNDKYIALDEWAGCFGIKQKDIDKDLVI
Text: A pASK84 expression vector (FIG. 1) was used to express the Fab regions of the resulting antibodies, designated Imm1 through Imm12. The Fab regions were targeted to the periplasm where they were collected and subsequently purified via activity chromatography on a protein A sepharose column. Identity was verified by Western blot and SPARC binding activity was verified by ELISA.
Imm13 and Imm14 are fully human anti-human SPARC antibodies which were generated using a human phage display library. SPARC was panned against the commercial human Fab phage display library HuFabL® (Creative Biolabs, Shirley, N.Y.). SPARC binding activity was verified by ELISA for these two Fab molecules.

[6] = target: T5, SPARC; experiment: ELISA comparing Imm11, Imm12, Imm13, Imm14 binding to human SPARC; conditions: ELISA (FIG. 13)
Description: An ELISA assay was also performed to directly compare the SPARC binding capabilities of selected mouse-derived anti human SPARC antibodies, Imm11 and Imm12, to the fully human Imm13 and Imm14, the results of which are presented in FIG. 13.

[7] = target: T6, denatured human SPARC (Homo sapiens, UniProt P09486); experiment: Western blot against denatured SPARC; format: binding; conditions: SDS polyacrylamide gel
T6 sequence (P09486 18-303): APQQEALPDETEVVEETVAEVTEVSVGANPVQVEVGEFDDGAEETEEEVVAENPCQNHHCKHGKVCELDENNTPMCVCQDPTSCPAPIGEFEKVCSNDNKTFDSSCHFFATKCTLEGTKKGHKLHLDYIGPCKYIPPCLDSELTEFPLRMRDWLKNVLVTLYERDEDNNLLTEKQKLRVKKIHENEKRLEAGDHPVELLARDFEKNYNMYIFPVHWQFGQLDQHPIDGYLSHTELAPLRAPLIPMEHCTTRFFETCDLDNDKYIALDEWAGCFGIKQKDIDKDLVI
Text: Western blotting was used to determine whether the Imm series antibodies bind to linear or conformational epitopes. In this analysis, SPARC protein was run on a polyacrylamide gel in the presence of SDS. Accordingly, the SPARC protein on the gel was in its denatured form. The Imm series antibodies were used as primary antibodies and were then probed with goat anti-mouse IgG. BSA was used as a negative control.

[8] = system: LL/2 (Lewis Lung Carcinoma); experiment: LL/2 Lewis Lung Carcinoma survival / lung metastasis model; format: in vivo, mice; conditions: 200 μg/mouse i.p. twice weekly for 4 weeks, versus mouse control IgG
Description: C57BL male mice (approx. 6 weeks old) were weighed, and then injected intravenously with approximately 1×10^6 cells (approximately 0.1 mL) of LL/2 (Lewis Lung Carcinoma) with 25-gauge needle. A minimum of 10 animals was used per group. Twice weekly for 4 weeks, each animal in all groups received 200 μg/mouse of a test antibody or mouse IgG. These test articles/antibodies were dosed via intra-abdominal injection into the peritoneal cavity with a 25-27 gauge needle. The first dose was administered within 30 minutes of tumor cell injection.
Animals were weighed prior to tumor cell injection, and twice weekly prior to dosing. All animals were examined twice daily for mortality/morbidity. At the end of the experiment, the mice were killed, and primary tumors and lungs were removed, fixed, and embedded. Euthanized animals and any animals found dead prior to rigor mortis were necropsied. Plasma and lungs from all animals were collected and weighed at termination. Lungs were infused with and then immersed in 10% Neutral buffered formalin. Tissues were stored for additional gross and histopathologic analysis.
Animals were administered either mHTI, Imm12, or Imm14. A negative control group was administered mIgG. The antibodies were formulated in PBS and were administered in at dose of 200 μg/mouse, twice weekly, for four weeks. The survival of the animals was then recorded over […].

[9] = target: T7, mouse SPARC (Mus musculus, UniProt P07214); experiment: ELISA binding to murine SPARC (FIG. 16); conditions: ELISA (FIG. 16)
T7 sequence (P07214 18-302): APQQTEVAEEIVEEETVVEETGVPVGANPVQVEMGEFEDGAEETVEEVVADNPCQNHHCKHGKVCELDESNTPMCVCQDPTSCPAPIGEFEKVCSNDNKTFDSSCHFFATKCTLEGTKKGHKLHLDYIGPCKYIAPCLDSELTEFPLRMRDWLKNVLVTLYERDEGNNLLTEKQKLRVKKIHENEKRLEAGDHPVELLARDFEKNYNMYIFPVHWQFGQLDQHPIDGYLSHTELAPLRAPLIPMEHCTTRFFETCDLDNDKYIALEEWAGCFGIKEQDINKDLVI

[10] = target: T5, SPARC; experiment: ELISA binding to human SPARC (FIG. 16); conditions: ELISA (FIG. 16)
[11] = system: recombinant human SPARC protein; experiment: Tube Formation Assay (AngioKit) with SPARC and SPARC binding antibodies; format: cell-based; conditions: 300 μg/mL antibody with 10 μg/mL recombinant human SPARC
Description: This assay was performed using the TCS Cellworks human AngioKit model kit (TCS-ZHA-1000, TCS Cell Works, Buckingham, UK) as described in Example 10 above. The media contained 10 μg/mL recombinant human SPARC protein. The media also contained 300 μg/mL of one of the above prepared mouse SPARC binding monoclonal antibodies (Imm12, Imm14, mHTI), or a control (mouse IgG).
To examine the effect of SPARC on tubule formation, and interference with that function by SPARC binding monoclonal antibodies, the number of tubules formed and their length was evaluated by light microscopy.

[12] = system: HT29 colon xenografts; experiment: Tumor localization of Alexa 680 labeled antibodies in HT29 xenografts; format: in vivo, mice; conditions: 200 ug/mouse i.v. day 1, Alexa 680 label, followed 36 days
Description: Nude mice implanted with subcutaneous HT29 colon xenografts were treated with Imm series antibodies labeled with labeled with Alexa 680 fluorescent dye at dose of 200 ug/mouse. The labeled Imm antibodies were formulated in saline and administered intravenously on day 1. The fluorescent signal was followed in these mice over the course of 36 days.

B1: Fab16: human SPARC binding Fab from phage display library, SEQ ID NO 16; the Fab region of Imm14 (protein)
chain: QVQLVQSGGGLIQPGGSLRLSCAASGFTVSSNYMSWVRQAPGKGLEWVSVIYSGGSTYYADSVKGRFTISRDNSKNTLYLQMNSLRAEDTAVYYCARGIAAAGLDYWGQGTLVTVSSASTKGPSVFPLAPSSKSTSGGTAALGCLVKDYFPEPVTVSWNSGALTSGVHTFPAVLQSSGLYSLSSVVTVPSSSLGTQTYICNVNHKPSNTKVDKKVEPKSCDKTSELVLTQPPSVSGTPGQRVTISCSGSSSNIGSNYVYWYQQLPGTAPKLLIYRNNQRPSGVPDRFSGSKSGTSASLAISGLRSEDEADYYCAAWDDSLSGWVFGGGTKLTVLGQPKAAPSVTLFPPSSEELQANKATLVCLISDFYPGAVTVAWKADGSPVKAGVETTTPSKQSNNKYAASSYLSLTPEQWKSHRSYSCQVTHEGSTVEKTVAPTECS
- Kd [1]: 7 nM
- Kd [2]: 11 nM
- Kd [3]: 76.2 nM
- Kd [4]: 132 nM
- SPARC binding activity (ELISA) [5]: verified

B2: Imm14: fully human anti-human SPARC antibody created from Fab16, IgG1 (κ) (antibody, V domains shown)
VH: QVQLVQSGGGLIQPGGSLRLSCAASGFTVSSNYMSWVRQAPGKGLEWVSVIYSGGSTYYADSVKGRFTISRDNSKNTLYLQMNSLRAEDTAVYYCARGIAAAGLDYWGQGTLVTVSS
VL: ELVLTQPPSVSGTPGQRVTISCSGSSSNIGSNYVYWYQQLPGTAPKLLIYRNNQRPSGVPDRFSGSKSGTSASLAISGLRSEDEADYYCAAWDDSLSGWVFGGGTKLTVL
- affinity for SPARC relative to mouse derived Imm11 and Imm12 [6]: lower affinity
- binding to denatured SPARC [7]: bind denatured SPARC
- inhibition of lung LL/2 metastasis [8]: did not inhibit lung LL/2 metastasis
- binding to mouse SPARC [9]: not mouse SPARC
- binding to human SPARC [10]: specifically bind to human SPARC
- effect on SPARC-induced tubule formation [11]: only very slight formation of very short tubules
- localization at the tumor site [12]: do not localize at the tumor site
